PubChem BioAssay AID624417 (National Center for Advancing Translational Sciences (NCATS), 2012)
“And” between values parts separate entries of the source, which are not always exact repeats. Identical values can stand only once. Out of some 410,000 compounds screened, about 6,400 (1.6%) were called active. The shares of active, inactive and inconclusive entries below differ from those in the screen. The call rests on the fitted dose curve; in most records, active means well fitted inhibition curve with a large enough effect; inconclusive means small, poorly fitted or top-dose-only effect; inactive means no such curve, though single readings can be large or run the other way. Potencies of inconclusive entries are doubtful fits and often do not repeat.

target: Glucagon-like peptide 1 receptor (Homo sapiens) (UniProt P43220); assay: qHTS of GLP-1 Receptor Inverse Agonists (Inhibition Mode); conditions: HEK293 GLP-1R CRE-luciferase, luminescence, 24 h, GLP-1R form is constitutively active; activity change, negative = inhibition: at 38.3 µM (top of the series) unless noted; further: nearly all actives have a fitted effect of over 55% in size
How it was run: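 Cells are plated, allowed 12 hours at 37 deg C, then treated with compounds for 24 hr before luciferase detection reagent is added and luminescence is read after 12 min at room temperature. The HEK293 line carries constitutively active GLP-1R with a cAMP-responsive reporter.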
On the % scale 0 is the no-effect control and ±100 the full control effect; potency means the concentration at half of the fitted maximal effect; tags describe the fitted curve by direction and shape.

Chain of UniProt P43220 (P43220 whole entry, looked up): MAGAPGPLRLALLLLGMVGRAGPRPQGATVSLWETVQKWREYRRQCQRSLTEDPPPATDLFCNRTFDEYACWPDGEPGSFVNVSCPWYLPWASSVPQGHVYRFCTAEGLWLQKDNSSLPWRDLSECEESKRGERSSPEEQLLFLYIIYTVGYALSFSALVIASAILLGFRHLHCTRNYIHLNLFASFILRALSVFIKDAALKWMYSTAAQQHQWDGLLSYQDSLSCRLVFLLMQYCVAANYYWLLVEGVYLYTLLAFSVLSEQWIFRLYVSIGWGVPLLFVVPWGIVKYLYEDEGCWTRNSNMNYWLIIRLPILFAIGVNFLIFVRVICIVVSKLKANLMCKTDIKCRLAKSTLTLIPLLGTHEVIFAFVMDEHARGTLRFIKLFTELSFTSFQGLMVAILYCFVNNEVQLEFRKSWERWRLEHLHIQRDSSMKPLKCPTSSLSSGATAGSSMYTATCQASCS

SMILES | Potency | activity change, negative = inhibition
CCCn1c(SCC(=O)N2c3ccccc3Sc3ccccc32)nc2ccccc21 | inconclusive: 3.55 µM [inhibitor, full curve] | 
O=CN(c1ccccc1)c1ccc2ccccc2c1 | inconclusive: 28.2 µM [inhibitor, single point] | 
Cc1cccc(-c2nc(NCCCN(C)C)c3ccccc3n2)c1 | inconclusive: 11.2 µM [inhibitor, partial curve, poor fit] | 
O=c1[nH]c(=S)[nH]c2c1C(C1CCCCC1)OC(C1CCCCC1)C2 (stereo unspecified) | inactive | 
COc1ccc(C2CC(=O)Oc3cc(C)cc(C)c32)cc1 (stereo unspecified) | inconclusive: 12.6 µM [inhibitor, single point] | 
Nc1ccc(-c2nc3ccc([N+](=O)[O-])cc3[nH]2)cc1 | inactive | 
Cc1nn(-c2ccccn2)c2c1C(=O)CC(C)(C)C2N=[N+]=[N-] (stereo unspecified) | inconclusive: 31.6 µM [inhibitor, single point] | 
COc1ccccc1NC(=O)Cn1nnc(C(=O)NCc2cccs2)c1N | inconclusive: 891 nM [inhibitor, full curve, poor fit] and inconclusive: 501 nM [inhibitor, full curve, poor fit] | 
O=C(NCc1ccccc1)c1ccc(N2CCC3(CC2)CC(c2ccc(Cl)cc2)=NO3)c([N+](=O)[O-])c1 | inactive | 
C#CCNC(=O)C[C@@H]1C[C@@]2(C(=O)OCC)CCCC=C2N(Cc2ccc(Cl)cc2Cl)C1=O | inconclusive: 12.6 µM [inhibitor, single point] | 
OCCOC1CCCc2oc(-c3ccccc3)c(C#CC3(O)CCCCC3)c21 (stereo unspecified) | inconclusive: 10 µM [inhibitor, partial curve, poor fit] | 
O=C(Cn1cnc2cc([N+](=O)[O-])ccc2c1=O)Nc1cccc(S(=O)(=O)N2CCCCC2)c1 | inconclusive: 28.2 µM [inhibitor, single point] | 
COc1cccc(C(=O)Nc2ccc(C3CC3(Cl)Cl)cc2)c1 (stereo unspecified) | inconclusive: 7.94 µM [inhibitor, partial curve, poor fit] | 
COc1ccc(-c2oc3ccccc3c2C#Cc2cncn2C)cc1 | inconclusive: 7.94 µM [inhibitor, partial curve, poor fit] | 
Cc1cccc(OCc2n[nH]c(=S)n2Cc2ccccc2)c1 | inactive | 
CCOC(=O)c1ccc(N2C(=O)c3[nH]nc(-c4ccc(OC)cc4)c3C2c2cccc(O)c2)cc1 (stereo unspecified) | inconclusive: 10 µM [inhibitor, partial curve, poor fit] | 
CCC(=O)N1CCc2cc(S(=O)(=O)NCCCN(CC)Cc3ccccc3)ccc21 | inconclusive: 28.2 µM [inhibitor, single point] | 
COc1ccccc1CNC(=O)CCn1c(=O)c2ccccc2n(CC(=O)Nc2cc(Cl)ccc2C)c1=O | inactive | 
COc1cc(/C=N/Nc2ccc(F)cc2F)cc(OC)c1OC | inconclusive: 2.24 µM [inhibitor, full curve, poor fit] | 
CCN(CC)CCn1c(=N)n(CC(O)COc2cccc(C)c2)c2ccccc21 (stereo unspecified) | inconclusive: 1.78 µM [inhibitor, full curve, poor fit] | 
CC(=O)N1c2ccc(S(=O)(=O)N3CCC(C(=O)N4CCCC(C)C4)CC3)cc2CC1C (stereo unspecified) | inactive | 

SMILES | Potency | activity change, negative = inhibition
COCCNc1nc(-c2ccccc2)nc2ccccc12 | inconclusive: 31.6 µM [inhibitor, partial curve, poor fit] | 
COc1ccc(C2C(C(=O)c3ccccc3)=C(C)Nc3nc4ccccc4n32)c(OC)c1 (stereo unspecified) | inactive | 
CS(=O)(=O)N(CCc1ccccc1)CC(=O)N1CCN(c2ccc(F)cc2)CC1 | inconclusive: 22.4 µM [inhibitor, single point] | 
S=C(NCC1CCCO1)Nc1cc(Cl)c(Cl)cc1Cl (stereo unspecified) | inconclusive: 28.2 µM [inhibitor, single point] | 
Cc1ccc(S(=O)(=O)N2CCCC(C(=O)NCCc3ccc4c(c3)OCO4)C2)cc1 (stereo unspecified) | active: 12.6 µM | 
CN(C)c1cccc(C(=O)NNC(=O)C23CC4CC(CC(C4)C2)C3)c1 | inconclusive: 11.2 µM [inhibitor, single point] | 
Cc1cc(C)cc(NC(=O)CSc2ccc(-c3cccs3)nn2)c1 | inconclusive: 4.47 µM [inhibitor, partial curve, poor fit] | 
Cc1ccccc1Nc1nn2c(=O)c3ccc(C(=O)NCc4cccs4)cc3nc2s1 | inconclusive: 1.12 µM [inhibitor, full curve, poor fit] | 
Cc1cc(NS(=O)(=O)c2ccc(NC(=O)COc3ccccc3Br)cc2)no1 | inactive | 
Cn1c(=O)c(=O)n(C)c2cc(N3CCCCC3)c(NS(=O)(=O)c3ccc([N+](=O)[O-])cc3)cc21 | inactive | 
CCOc1ccc2nc(NC(=O)C34CC5CC(CC(NC(C)=O)(C5)C3)C4)sc2c1 | inconclusive: 5.62 µM [inhibitor, partial curve, poor fit] | 
COc1ccc(Oc2cc(C)c3cccc(C)c3n2)cc1 | inconclusive: 11.2 µM [inhibitor, single point] | 
Cc1ccc(CNC(=O)CO/N=C/c2ccc(C(C)(C)C)cc2)cc1 | inconclusive: 28.2 µM [inhibitor, single point] | 
Cc1ccc(NC(=O)NCCN2CCN(c3ccccc3)CC2)cc1Cl | inconclusive: 2 µM [inhibitor, full curve] | 
Cc1cccc(NC(=S)NCCSc2ccc(Cl)cc2)c1 | inconclusive: 12.6 µM [inhibitor, partial curve, poor fit] | 
O=C1C=C(c2ccc(OC(F)(F)F)cc2)C[C@@H](c2ccc(Cl)cc2)C1 | active: 10 µM | 
CN(CC(=O)Nc1ccccc1Cl)C(=O)c1ccc(N2CCCCCC2)c([N+](=O)[O-])c1 | inconclusive: 12.6 µM [inhibitor, partial curve, poor fit] | 
COc1ccc(-c2coc3c(C(=O)N4CCN(C)CC4)cccc23)c(C)c1 | inactive | 
Cc1ccc(C(=O)N/N=C\c2ccc[nH]2)cc1[N+](=O)[O-] | inactive | 
CCOc1cc(/C=N\NC(=O)Cn2nc([N+](=O)[O-])cc2C)ccc1OCc1cccc2ccccc12 | inconclusive: 7.08 µM [inhibitor, partial curve, poor fit] | 
Cc1ccc(Nc2nc(N)nc(CSc3nc4ccccc4s3)n2)cc1 | inconclusive: 28.2 µM [inhibitor, single point] | 

SMILES | Potency | activity change, negative = inhibition
CC(C)Nc1nc(Cl)nc(N(C#N)CN2C(=O)c3ccccc3C2=O)n1 | inconclusive: 28.2 µM [inhibitor, single point] | 
Cc1ccc2sc(N(CCCN(C)C)C(=O)c3ccc(Br)s3)nc2c1C | inconclusive: 2.51 µM [inhibitor, partial curve, poor fit] | 
Cc1ccc(-c2c[n+](CC(=O)c3ccc(Br)cc3)c3n2CCCCC3)cc1 | inconclusive: 11.2 µM [inhibitor, single point] | 
CC1(C(=O)Nc2ccc3c(c2)OCO3)Cc2c(-c3cccc(C(N)=O)c3)ccnc2O1 (stereo unspecified) | inconclusive: 5.01 µM [inhibitor, partial curve, poor fit] | 
COC(=O)Cn1cnc(C(=O)Nc2ccc(C)c(C)c2)n1 | inactive | 
O=C(NCCOc1ccccc1)C1Nc2ccc(C(F)(F)F)cc2C2c3ccccc3CC12 (stereo unspecified) | inconclusive: 8.91 µM [inhibitor, partial curve, poor fit] | 
COc1ccc(C(=O)COC(=O)CN2C(=O)NC3(CC(C)CC(C)(C)C3)C2=O)c(OC)c1 (stereo unspecified) | inconclusive: 17.8 µM [inhibitor, single point] | 
CC1(OC(=O)CCc2ccccc2)C(=O)C=C2C=C(c3ccc(C#N)cc3)N(c3ccccc3)C=C2C1=O (stereo unspecified) | inconclusive: 5.62 µM [inhibitor, partial curve] | 
CCC(C)NC(=O)c1cc2n(n1)CCCN(Cc1ccc(C)cc1)C2=O (stereo unspecified) | inactive | 
CCOC(=O)c1sc2nc(C)nc(NCCc3ccccn3)c2c1C | inactive | 
O=C(Nc1ccc(SC(F)F)cc1)c1cc(-c2ccncc2)nc2ccccc12 | inconclusive: 28.2 µM [inhibitor, single point] | 
CCOC(=O)c1[nH]c2ccc(Br)cc2c1NC(=O)CCN1CCC(C)CC1 | inconclusive: 14.1 µM [inhibitor, partial curve, poor fit] | 
C=CC[C@@H](CC(=O)N(CCO)Cc1ccccc1)C(=O)N[C@H](COC(=O)[C@@H](CC=C)Cc1ccc(F)cc1)Cc1c[nH]c2ccccc12 | inconclusive: 8.91 µM [inhibitor, partial curve, poor fit] | 
CCOc1ccc(CCN2C(=S)N([C@@H](Cc3ccc(O)cc3)CN3CCC[C@@H]3CN3C(=S)NC[C@@H]3Cc3ccccc3)C[C@@H]2CC(C)C)cc1 | inconclusive: 28.2 µM [inhibitor, single point] | 
COc1ccc(-c2nn(-c3ccccc3F)cc2CNCCn2nc(C)cc2C)cc1 | inconclusive: 28.2 µM [inhibitor, single point] | 
OCCN(CC(O)Cn1ccc2ccccc21)CC(O)Cn1ccc2ccccc21 (stereo unspecified) | inconclusive: 7.08 µM [inhibitor, partial curve, poor fit] | 
O=C(OCc1ccccc1)N1CCc2ccccc21 | inconclusive: 20 µM [inhibitor, single point] | 
O=S(=O)(Nc1ccc(Cl)cc1)c1cccc2cccnc12 |  | inconclusive: -53.4% [inhibitor]
Cc1ccc(S(=O)(=O)Nc2ccccc2N(C)S(=O)(=O)c2ccc(C)cc2)cc1 | inconclusive: 28.2 µM [inhibitor, single point] | 
